# Source: the supplement of paper PMC9446081
# Among all 39,000 compounds or so, about 220 (0.56%) showed activity. This is one part of the list.
# System: Escherichia coli K-12 BW25113
# Assay: relative growth (OD600 normalised to plate interquartile mean) (fraction); higher = less growth inhibition, active = 0.2 or less
# Conditions: 50 µM; LB; incubation time: overnight (16-24 h)
# 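Note: static incubation at 37 °C against the wild-type strain, values averaged over two biological replicates.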
row,Compound,relative growth
1,COc1ccc(S(=O)(=O)Nc2ccc3c(c2)C(=O)N([C@@H](C)CO)C[C@@H](C)[C@@H](CN(C)S(=O)(=O)c2ccc(OC)cc2)O3)cc1,inactive: 1.05
2,CNC[C@H]1OCCCC[C@H](C)Oc2ccc(NC(=O)Nc3ccc(C(F)(F)F)cc3)cc2C(=O)N([C@H](C)CO)C[C@@H]1C,inactive: 1.01
3,Cc1noc(C)c1S(=O)(=O)N(C)C[C@H]1Oc2ccc(NS(=O)(=O)c3ccccc3)cc2CC(=O)N([C@H](C)CO)C[C@@H]1C,inactive: 1.01
4,CC(C)NC(=O)N(C)C[C@@H]1Oc2c(NC(=O)C3CCCCC3)cccc2C(=O)N([C@@H](C)CO)C[C@H]1C,inactive: 1
5,C[C@@H]1CN([C@@H](C)CO)C(=O)c2cc(Br)cnc2O[C@H]1CN(C)C(=O)CN1CCOCC1,inactive: 1
6,COc1ccc(-c2cnc3c(c2)C(=O)N([C@@H](C)CO)C[C@H](C)[C@H](CN(C)S(=O)(=O)c2ccc(OC)cc2)O3)cc1,inactive: 1.05
7,C[C@@H]1CN([C@H](C)CO)C(=O)c2cccc(NC(=O)Nc3ccccc3)c2O[C@@H]1CN(C)Cc1ccc(C(F)(F)F)cc1,inactive: 0.989
8,COc1ccc2c3c([nH]c2c1)[C@@H](CO)N(C[C@]13CCN(CC1)CC1CCCC1)C(=O)Nc1cccc(c1)F,inactive: 0.978
9,C[C@H]1CN([C@@H](C)CO)C(=O)c2cccc(NC(=O)c3cnccn3)c2O[C@@H]1CN(C)S(=O)(=O)c1cccs1,inactive: 0.984
10,O=C(C[C@H]1C=C[C@H](NS(=O)(=O)c2ccc(F)cc2)[C@H](CO)O1)NCCN1CCCCC1,inactive: 1.01
11,C[C@@H]1CN([C@@H](C)CO)C(=O)c2cc(NC(=O)Nc3cccc4ccccc34)ccc2O[C@@H]1CN(C)Cc1ccc(C(F)(F)F)cc1,inactive: 1.04
12,COc1ccc(S(=O)(=O)N(C)C[C@H]2Oc3ccc(NS(=O)(=O)c4cccs4)cc3CC(=O)N([C@H](C)CO)C[C@@H]2C)cc1,inactive: 1.02
13,C[C@H](CO)N1C[C@H](C)[C@@H](CN(C)Cc2ccc(Cl)c(Cl)c2)Oc2c(NC(=O)NC3CCCCC3)cccc2C1=O,inactive: 0.918
14,Cc1noc(C)c1S(=O)(=O)Nc1cccc2c1O[C@H](CN(C)Cc1ccc3c(c1)OCO3)[C@H](C)CN([C@H](C)CO)C2=O,inactive: 1.01
15,C=CCOC(=O)[C@H]1[C@@H]2C(=O)O[C@@H](c3ccccc3)[C@@H](c3ccccc3)N2[C@@H](c2ccc(OCCOC(=O)[C@H]3C[C@H]4C(=O)N[C@@H](CCCC[N+](C)(C)C)C(=O)N4[C@H]3c3ccc(O)cc3)cc2)[C@]12C(=O)Nc1ccc(I)cc12,inactive: 1.02
16,Nc1ncnc2c1ncn2[C@H]1O[C@@H](C(=O)N2CCN(CC(=O)Nc3cccc4c3CNC4=O)CC2)[C@H](O)[C@@H]1O,inactive: 0.981
17,CC(C)=CCCC(C)C1CCC2(C)C3=C(CCC12C)C1(C)CCC(O)C(C)(C)C1CC3 (stereo not drawn),inactive: 1.07
18,CC(C)(C)CC(C)(C)c1cc(Cc2cc(C(C)(C)CC(C)(C)C)cc(-n3nc4ccccc4n3)c2O)c(O)c(-n2nc3ccccc3n2)c1,inactive: 1.06
19,C[C@H]1CCCCO[C@H](CN(C)S(C)(=O)=O)[C@@H](C)CN([C@@H](C)CO)C(=O)c2cc(N(C)C)ccc2O1,inactive: 1.01

row,Compound,relative growth
1,C[C@H]1CN([C@@H](C)CO)S(=O)(=O)c2ccc(-c3cncnc3)cc2O[C@H]1CN(C)C(=O)Cc1cccnc1,inactive: 0.998
2,C[C@H]1CN([C@@H](C)CO)S(=O)(=O)c2ccc(/C=C/c3ccccc3)cc2O[C@@H]1CN(C)C(=O)CN1CCOCC1,inactive: 1.04
3,COc1cc2nc(N(C)CCCNC(=O)C3CCCO3)nc(N)c2cc1OC.Cl (stereo not drawn),inactive: 1.05
4,NC(=O)c1cnccn1,inactive: 1.09
5,C[C@@H]1CN([C@@H](C)CO)C(=O)CCCn2nncc2CO[C@@H]1CN(C)C(=O)Nc1cccc(C(F)(F)F)c1,inactive: 0.929
6,O=S(=O)([O-])CCSSCCS(=O)(=O)[O-].[Na+].[Na+],inactive: 1.07
7,C[C@H]1CN([C@@H](C)CO)C(=O)c2cccc(NS(=O)(=O)c3ccc(F)cc3)c2O[C@@H]1CN(C)S(=O)(=O)c1cccs1,inactive: 1.04
8,CC(C)(C)OC(=O)C[C@H]1CC=CC[C@H](CC(=O)N[C@@H](CO)Cc2ccccc2)C(=O)N2CCC[C@@H]2COC1=O,inactive: 1
9,C[C@H](CO)N1C[C@H](C)[C@@H](CN(C)Cc2ccc(C(=O)O)cc2)OCCCC[C@H](C)Oc2ccc(NC(=O)c3ccccc3)cc2C1=O,inactive: 1
10,C[C@@H]1CCCCO[C@@H](CN(C)S(=O)(=O)c2ccc(Cl)cc2)[C@H](C)CN([C@@H](C)CO)C(=O)c2cc(NC(=O)c3ccncc3)ccc2O1,inactive: 1.05
11,CO[C@H]1CN(C)C(=O)c2ccc(NC(=O)C3CC3)cc2OC[C@H](C)N(C(=O)C2CCOCC2)C[C@H]1C,inactive: 0.991
12,C[C@@H]1CN([C@@H](C)CO)C(=O)c2cc(NC(=O)NC3CCCCC3)ccc2O[C@H]1CN(C)Cc1ccc(Cl)c(Cl)c1,inactive: 1.01
13,C[C@H]1CN([C@@H](C)CO)C(=O)c2cc(NC(=O)Cc3ccccc3)ccc2O[C@H]1CN(C)Cc1ccc(Cl)c(Cl)c1,inactive: 1.01
14,CO[C@@H]1CN(C)C(=O)c2ccc(NC(=O)C3CC3)cc2OC[C@H](C)N(C(=O)CN2CCOCC2)C[C@H]1C,inactive: 0.999
15,Cc1ccc(-c2ncns2)cc1,inactive: 0.974
16,C[C@H]1CCCCO[C@H](CN(C)C(=O)C2CCCCC2)[C@@H](C)CN([C@@H](C)CO)C(=O)c2cc(NS(=O)(=O)c3ccc(F)cc3)ccc2O1,inactive: 1.01
17,C[C@@H]1CN([C@@H](C)CO)S(=O)(=O)c2ccc(C3=CCCC3)cc2O[C@H]1CN(C)C(=O)c1cnccn1,inactive: 0.991
18,C[C@@H]1CCCCO[C@@H](CN(C)C(=O)c2ccccc2)[C@H](C)CN([C@H](C)CO)C(=O)c2cc(NC(=O)Nc3cccc4ccccc34)ccc2O1,inactive: 1.03
19,C[C@H]1CN([C@@H](C)CO)C(=O)Cc2cc(NC(=O)CCN3CCOCC3)ccc2O[C@@H]1CN(C)C(=O)Nc1ccc2c(c1)OCO2,inactive: 0.965
